# Reference: PubChem BioAssay AID2451 (National Center for Advancing Translational Sciences (NCATS), 2010)
# The campaign covered roughly 290,000 compounds. About 2,100 (0.72%) were called active. The inconclusive results got no clear call from the source; some entries with a clear call stand among them for comparison. Calls come from the whole dose curve; as a rule, active = well fitted inhibition curve with a large enough effect; inconclusive = small, poorly fitted or top-dose-only effect, or effect the other way; inactive = flat fitted curve, though single readings scatter. Potencies beside an inconclusive call are fits to weak or partial responses and may not hold up.
# Biological target: Fructose-bisphosphate aldolase (Giardia intestinalis (strain ATCC 50803 / WB clone C6)) (UniProt A8B2U2)
# Chain of UniProt A8B2U2 (A8B2U2 whole entry, looked up): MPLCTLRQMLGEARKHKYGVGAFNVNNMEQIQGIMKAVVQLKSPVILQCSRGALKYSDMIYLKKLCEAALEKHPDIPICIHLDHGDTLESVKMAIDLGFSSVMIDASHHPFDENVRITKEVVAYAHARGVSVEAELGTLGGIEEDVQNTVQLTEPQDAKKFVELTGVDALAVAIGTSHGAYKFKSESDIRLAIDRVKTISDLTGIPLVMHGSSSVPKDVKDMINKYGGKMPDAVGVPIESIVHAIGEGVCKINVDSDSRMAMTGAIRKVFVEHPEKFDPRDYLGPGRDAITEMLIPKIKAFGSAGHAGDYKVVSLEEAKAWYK
# Assay: qHTS Assay for Inhibitors of Fructose-1,6-bisphosphate Aldolase from Giardia Lamblia; note: nearly all actives have a fitted effect of over 55% in size
# Conditions: purified Giardia FBPA; activity, negative = inhibition: at 59.6 µM (top of the series) unless noted
# Method in brief: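 40 nM FBPA preincubated 10 min at RT with compound (up to 57.5 uM final), then substrate plus GAPDH/TPI/NAD/arsenate coupling and diaphorase/resazurin added. Fluorescence read after 20 min at RT, 525/598 nm.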
# % is set by controls: 0 for no effect and ±100 for the full control effect; potency is the fitted concentration of half-maximal effect; tags give direction and shape of the fitted curve.
Compound,Potency,"activity, negative = inhibition"
COc1cc(C(=O)O)nc(OC)n1,"inconclusive: 17.7 µM [inhibitor, single point]",–
COCc1[nH]nc2c1C(c1ccccc1OC)C(C#N)=C(N)O2 (centres undefined),"inconclusive: 7.92 µM [inhibitor, full curve]",–
CCOC(=O)c1ccc(NC(=O)COc2ccc(CNCCO)cc2OCC)cc1,–,inactive: 2.08%
CN(C)CCOc1ccc(Cl)cc1C(C)(C)C,active: 14.1 µM,–
CC(C)(C)C#CCn1c(/C=[N+](\[O-])C2CCCCC2)nc2ccccc21,"inconclusive: 20 µM [activator, partial curve, poor fit]",–
COc1ccc(CN2CCC(C(=O)N3CCCC(C)C3)CC2)cc1OC (centres undefined),"inconclusive: 15.8 µM [inhibitor, single point]",–
Cc1cc(C)c2ccc(C)[n+]([O-])c2c1O,–,inactive: -13.3%
CC(C)(C)NC(=O)C(c1cccnc1)N(C(=O)c1ccc(Cl)nc1)C1CCCC1 (centres undefined),"inconclusive: 0.63 µM [inhibitor, full curve]",–
Cc1ccc(C2C3=C(CC(C)(C)CC3=O)Nc3[nH]c(=S)[nH]c(=O)c32)cc1 (centres undefined),"inconclusive: 14.1 µM [inhibitor, partial curve]",–
C=CCN=c1scc(C)n1/N=C/c1ccc(O)c(O)c1,active: 22.3 µM,–
S=C(Nc1ccc2nsnc2c1)N1CCCC1,active: 6.29 µM,–
COc1ccc(CSC2=NCCN2)cc1Br,"inconclusive: 28.2 µM [inhibitor, partial curve]",–
COc1ccc(CN2CC(C(=O)NCCC(C)C)CC2=O)cc1 (centres undefined),–,inactive: 2.18%
O=[N+]([O-])c1ccccc1-c1ccc(C(=S)N2CCCC2)o1,active: 15.8 µM,–
O=C(O)/C(=C\c1ccco1)NC(=O)c1cccc2ccccc12,"inconclusive: 44.6 µM [inhibitor, single point]",–
Cc1cc(C)n2nc(C(=O)N/N=C/c3cccs3)nc2n1,–,inactive: -4.96%
COc1ccccc1CNCC(=O)Nc1ccc(C(F)(F)F)cc1,"inconclusive: 19.9 µM [inhibitor, partial curve]",–
c1cncc(CNc2cc(-c3ccc4c(c3)OCO4)ncn2)c1,"inconclusive: 19.9 µM [inhibitor, partial curve]",–
CCCCC(CC)C(=O)Oc1ccc(O)c(C(C)(C)C)c1 (centres undefined),"inconclusive: 6.29 µM [inhibitor, partial curve]",–
COc1ccc(C(=O)C(CCC(CNC(C)(C)C)C(=O)c2ccc(OC)cc2)CNC(C)(C)C)cc1 (centres undefined),–,inactive: -0.789%
O=c1c2ccccc2nc(N/N=C/c2c(O)ccc3ccccc23)n1O,"inconclusive: 11.2 µM [inhibitor, partial curve]",–
CC(=O)Nc1ccc(-c2sc(Nc3cccc4ccccc34)n[n+]2-c2ccccc2)cc1,active: 15.8 µM,–
O=C(CSc1ncnc2nc[nH]c12)c1ccc([N+](=O)[O-])cc1,"inconclusive: 15.8 µM [inhibitor, partial curve]",–
O=C(NNC(=O)c1cc2ccccc2oc1=O)c1ccccc1,–,inactive: -4.95%
CC1(C)S[C@@H]2[C@H](NC(=O)C3(N)CCCCC3)C(=O)N2[C@H]1C(=O)O,"inconclusive: 11.2 µM [inhibitor, partial curve]",–

Compound,Potency,"activity, negative = inhibition"
O=C(c1ccco1)c1cn(CC(=O)N2CCCCCC2)c2ccccc12,–,inactive: 2.57%
CC(C)(C)c1ccc(S(=O)(=O)/N=C2\C=C(NS(=O)(=O)c3ccccc3)C(=O)c3ccccc32)cc1,"inconclusive: 15.8 µM [inhibitor, partial curve]",–
CCOC(=O)CSc1nc2ccccc2c(=O)n1CCCCCC(=O)NCc1ccco1,–,inactive: -0.302%
O=C(Nc1nnc(-c2ccccc2Cl)o1)c1ccc(S(=O)(=O)N2CCCCCC2)cc1,"inconclusive: 15.8 µM [activator, partial curve]",–
O=C(Nc1nc2c(s1)CCCC2)c1cc2n(n1)C(C(F)(F)F)CC(C1CC1)N2 (centres undefined),–,inactive: -1.94%
O=C(N/N=C/c1ccc[nH]1)c1ccccc1O,"inconclusive: 8.89 µM [inhibitor, partial curve]",–
COc1ccc(CN2CCN(C(=O)CC(C)C)CC2)cc1,"inconclusive: 28.2 µM [inhibitor, single point]",–
Cc1n(CC(O)COCc2ccccc2)c2ccccc2[n+]1C (centres undefined),–,inactive: -1.28%
CCOC(=O)N1CCN(C(=O)CCCn2c(=S)[nH]c3ccsc3c2=O)CC1,active: 15.8 µM,–
O=C(Cn1cnc2ccccc2c1=O)Nc1ccc2c(c1)OCCO2,–,inactive: 1.45%
CCCCCC(=O)NNC(=S)NC(C)=O,"inconclusive: 25.1 µM [inhibitor, single point]",–
Cc1nn(-c2ccccc2)c2[nH]c(=O)c(CNc3ccc(N4CCOCC4)cc3)cc12,"inconclusive: 20 µM [inhibitor, partial curve]",–
CC(CCc1ccccc1)NCc1ccc(Cl)cc1Cl (centres undefined),"inconclusive: 12.6 µM [inhibitor, partial curve]",–
CC1=CC(C)(C)NC(=S)N1c1cccc2cc(S(=O)(=O)O)ccc12,"inconclusive: 15.8 µM [inhibitor, single point]",–
Cc1ccc(Nc2nc(N3CCOCC3)nc(N3CCOCC3)n2)cc1C,"inconclusive: 39.8 µM [inhibitor, single point]",–
C=CCN(CC=C)C(=O)C1CCN(Cc2ccc(OCc3ccccc3)cc2)CC1,"inconclusive: 12.6 µM [inhibitor, partial curve]",–
CC1=CC(C)(C)N(C(=O)CNC2CCCC2)c2cc(C)ccc21,"inconclusive: 14.1 µM [inhibitor, partial curve]",–
Oc1ccc(/C=N/N=C(c2ccccc2)c2ccccc2)c(O)c1O,active: 5.61 µM,–
CCN(CC)CCNC(=O)CCc1c(C)nc2c(c(C)nn2-c2ccc(C)cc2)c1C,–,inactive: 7.43%
O=C(NC1=C(NC2CCS(=O)(=O)C2)C(=O)c2ccccc2C1=O)c1ccccc1 (centres undefined),active: 1.26 µM,–
CCN(CC)CCN(CC(=O)N(C1CCCCC1)C1CCCCC1)C(=O)c1ccco1,"inconclusive: 17.7 µM [inhibitor, partial curve]",–
N=C1/C(=C\c2ccc(-c3ccc(C(=O)O)cc3)o2)C(=O)N=C2SC=C(c3ccccc3)N12,"inconclusive: 15.8 µM [inhibitor, partial curve]",–
COc1ccc(S(=O)(=O)Nc2cc(C(=O)NCCC(C)C)ccc2N2CCOCC2)cc1,–,inactive: -0.607%
Cc1cnc(C(=O)Nc2nnc(C3CC3)s2)cn1,"inconclusive: 50 µM [inhibitor, single point]",–
Cc1ccc(S(=O)(=O)CCC(=O)Nc2cccc(Cl)c2)cc1,–,inactive: -11.9%

Compound,Potency,"activity, negative = inhibition"
COc1ccc2nc(/N=C\N(C)C)sc2c1,"inconclusive: 19.9 µM [inhibitor, single point]",–
COc1cc(/C=C2\C(C)=C(C#N)c3nc(N)c(C#N)c(C)c32)ccc1OCC(=O)O,"inconclusive: 17.7 µM [inhibitor, partial curve]",–
Cc1cc(C)c(C)c(S(=O)(=O)NCc2ccncc2)c1C,–,inactive: -8.37%
OCC1=C[C@@H](O)[C@@H]2C=CO[C@@H](OC3O[C@H](CO)[C@@H](O)[C@H](O)[C@H]3O)[C@H]12 (some centres undefined),–,inactive: 0.713%
CSCC[C@H](NC(=O)[C@H](Cc1ccccc1)n1c(=O)[nH]c2ccccc2c1=O)C(=O)NCC1CCC(C(=O)O)CC1 (some centres undefined),–,inactive: 6.9%
C=CCNC(=O)N1CCCC(N2CCN(c3ccccc3OC)CC2)C1 (centres undefined),–,inactive: 1.77%
CCn1cc(C(=O)N2CCOCC2)c(=O)c2cc(S(=O)(=O)N(C)C3CCCCC3)ccc21,"inconclusive: 3.97 µM [activator, partial curve]",–
COC(=O)C1=C(C)N(CC2CCCO2)C(=O)/C1=C\c1ccc(O)cc1 (centres undefined),–,inactive: -18.4%
CCc1nnc(NC(=O)CSc2sc3c(O)cc(=O)[nH]c3c2C#N)s1,"inconclusive: 10 µM [inhibitor, single point]",–
O=C(Nc1ccc(N2CCCC2)c(Cl)c1)c1ccc(Br)o1,"inconclusive: 14.1 µM [inhibitor, partial curve]",–
O=C(CN1CCN(c2ccc(O)cc2)CC1)Nc1cc(S(=O)(=O)N2CCOCC2)ccc1Cl,"inconclusive: 15.8 µM [inhibitor, partial curve]",–
CC(=O)Nc1cc(C(=O)O)ccc1S(=O)(=O)c1ccc(Cl)cc1,"inconclusive: 19.9 µM [inhibitor, partial curve]",–
CCC1(OC(=O)c2ccccc2)CC(C)N(C)CC1C (centres undefined),"inconclusive: 39.8 µM [inhibitor, partial curve]",–
CNC(=O)COC(=O)c1ccccc1NC(=O)c1ccco1,–,inactive: 10.4%
C/C(=N\NC(=S)NCCc1ccccc1)c1ccc(O)cc1O,"inconclusive: 1.58 µM [activator, full curve]",–
COc1cccc(NC(=O)CCN2C(=O)c3ccccc3Sc3ncccc32)c1,–,inactive: -0.872%
CCCn1c(C2CC(=O)N(c3cc(OC)ccc3OC)C2)nc2ccccc21 (centres undefined),"inconclusive: 15.8 µM [inhibitor, partial curve]",–
Cc1c(/C(O)=C2\C(=O)C(=O)N(CCN(C)C)C2c2ccccc2)cnn1-c1ccccc1 (centres undefined),–,inactive: -1.01%
COc1ccc(CCNCc2cc(C)n(-c3ccc(OC)cc3)c2C)cc1,active: 14.1 µM,–
Cc1cc(O)cc(C)c1Cl,"inconclusive: 15.8 µM [inhibitor, single point]",–
CCc1nc(SCC(=O)c2cc(C)ccc2C)n[nH]1,"inconclusive: 12.6 µM [inhibitor, partial curve]",–
O=C(N/N=C/c1ccc([N+](=O)[O-])o1)C(=O)Nc1ccc(C(=O)O)cc1,"inconclusive: 9.98 µM [inhibitor, partial curve]",–
C=CCn1c(SC2CCOC2=O)nc2sc(C)c(C)c2c1=O (centres undefined),–,inactive: 1.93%
CCCn1c(N)c(C(=O)CSc2nc3ccccc3n2CCC#N)c(=O)n(C)c1=O,"inconclusive: 2.23 µM [inhibitor, full curve, poor fit]",–
